# Assay results reported in PubChem BioAssay AID588855 (National Center for Advancing Translational Sciences (NCATS), 2011).
# The campaign covered roughly 410,000 compounds. About 5,000 (1.2%) were called active. Inconclusive results, whose numbers are uncertain, are shown with a selection of clear calls. Calls come from the whole dose curve; as a rule, active = well fitted inhibition curve with a large enough effect; inconclusive = small, poorly fitted or top-dose-only effect; inactive = no such curve, though single readings can be large or run the other way. A potency beside an inconclusive call is a rough fit, not a confirmed value.
# Test: qHTS for Inhibitors of TGF-b; note: nearly all actives have a fitted effect of over 65% in size
# Settings: HepG2 CAGA-GFP TGF-b/SMAD3 reporter, GFP fluorescence, 18 h, TGF-beta stimulated, 500 pg/mL final; series mostly up to 46.1 µM; activity, negative = inhibition: at the top concentration
# Procedure, shortened: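 HEPG2 CAGA-GFP cells (1000/well, DMEM with 1% FBS) were pre-incubated 2 h at 37 degrees C, given compound by pin tool, then stimulated with TGF-beta at 500 pg/mL final for 18 h before per-cell GFP fluorescence imaging.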
# % is set by controls: 0 for no effect and ±100 for the full control effect; potency is the fitted concentration of half-maximal effect; tags give direction and shape of the fitted curve.
Compound,Potency,"activity, negative = inhibition"
O=C1CC(Sc2nnnn2-c2ccccc2)C(=O)N1c1cccc(Cl)c1 (configuration not stated),"inconclusive: 15.8 µM [inhibitor, single point]",–
Cc1noc(C)c1COc1ccc(CC(=O)NCc2ccccc2)cc1,"inconclusive: 10 µM [inhibitor, partial curve]",–
COCCCN(Cc1ccco1)C(=O)c1cc2c(s1)-c1ccccc1OC2,"inconclusive: 35.5 µM [inhibitor, single point]",–
CO/N=C/c1ccc(Oc2ccc(C)cc2)c([N+](=O)[O-])c1,"inconclusive: 35.5 µM [inhibitor, partial curve, poor fit]",–
COc1ccc(-c2nc(SCC(=O)NC3CCCC3)c(-c3ccc(OC)cc3)[nH]2)cc1,"inconclusive: 15.8 µM [inhibitor, single point]",–
CC12CCC(=O)N1C(C(=O)Nc1nc(-c3ccccc3Cl)cs1)CS2 (configuration not stated),"inconclusive: 35.5 µM [inhibitor, single point]",–
O=C(Nc1cc2c(cc1Cl)-c1ccc([N+](=O)[O-])cc1C2=NO)C(F)(F)F,"inconclusive: 12.6 µM [inhibitor, partial curve, poor fit]",–
CC1CCN(C(=O)c2ccc3c(c2)N(Cc2ccccc2F)C(=O)c2ccccc2S3(=O)=O)CC1,"inconclusive: 35.5 µM [inhibitor, single point]",–
Cc1cccc(NC(=O)c2ccc([N+](=O)[O-])o2)c1,active: 11.2 µM,–
O=C(NCCn1ccc2ccccc21)c1ccc(S(=O)(=O)N2CCCCC2)cc1,"inconclusive: 20 µM [inhibitor, single point]",–
Cc1ccc(NC(=O)C(=O)NCC(c2cccnc2)N2CCOCC2)cc1 (configuration not stated),–,inactive: -20.2%
C[C@@H](CN=[N+]=[N-])CN1CC[C@H](C(C)(C)C)CCC1=O,"inconclusive: 22.4 µM [inhibitor, single point]",–
CCCCC(=O)Nc1ncc2c(n1)CC(C)(C)CC2=O,"inconclusive: 1.12 µM [inhibitor, partial curve, poor fit]",–
COC(=O)c1nnn(-c2nonc2N)c1COc1ccc(C=O)cc1OC,"inconclusive: 10 µM [inhibitor, partial curve, poor fit]",–
COc1ccc(NC(=O)C2CCN(C(=O)C3CC(=O)N(c4ccc(C)cc4)C3)CC2)c(OC)c1 (configuration not stated),"inconclusive: 35.5 µM [inhibitor, partial curve, poor fit]",–
O=C(CSc1ncnc2c1oc1ccccc12)Nc1nc2ccccc2s1,"inconclusive: 12.6 µM [inhibitor, partial curve, poor fit]",–
COc1ccc(NC(=O)c2cc3c(Cl)nc4ccccc4c3s2)cc1OC,–,inactive: 5.62%
